Laboratory results reported in the supplement of paper PMC11417369.
± gives the standard deviation of the averaged measurements. This is one part of the list.

What follows are sequences tested on PfAP2-LT AP2 domain (GST-tagged) (assay: gcPBM binding intensity (ln(normalized median fluorescence intensity)); higher = stronger DNA binding).
Procedure, shortened: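 The highest Masliner-normalised natural-log median intensity across replicate spots of either probe orientation is reported as binding intensity. GST-tagged P. falciparum DNA-binding domains expressed in E. coli were applied for 1 h to an Agilent 4 × 180k array of primer-extended double-stranded 36-bp intergenic genomic probes plus negative controls, and bound protein was detected with Alexa488 anti-GST antibody and scanned at 488 nm.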

| Sequence | gcPBM binding intensity (ln) |
| --- | --- |
| ACGACATATGGATGATGTACTATCTTTATTATACAT [XGTACX_site6857] | 8.95 ± 0.43 |
| TAGAATAAACCAAGAAGTACTGTTTAATGAAAAGTA [XGTACX_site5712] | 8.79 ± 0.5 |
| ATACCTAAAAAATATACACACATATTTATAAATATA [CACACA_site7260] | 8.93 ± 0.4 |
| TATAAATATATATATACACACACATACACAAAAAAA [CACACA_site9191] | 9.71 ± 0.27 |
| ATATATTATATGTACACACACATATAAGGGATTATA [CACACA_site5] | 9.28 ± 0.4 |
| TATTACTTGATATATACACACATATAACATAAATGC [CACACA_site7783] | 8.94 ± 0.29 |
| AAAAATATGAAGACACAATATAGAAATAAAAATATA [XGTACX_negctrl_site244] | 8.79 ± 0.5 |
| TATTATAATATGTAGCGTACATTTTTTCTTTCTTTT [XGTACX_site7831] | 8.73 ± 0.49 |
| TAAACAGACATATAAACACACATATAAACCGACATA [CACACA_site2478] | 9.4 ± 0.48 |
| TATATTTATATTCTTACATTTTTTATGTTTTTTTTT [CACACA_negctrl_site1017] | 8.66 ± 0.58 |
| AAAATAACATAAAAGAGTACTAAACCAAGATCAAAT [XGTACX_site7973] | 9.11 ± 0.48 |
| GTCATATTATTCTTTTCACACACGCGTTAATAATAA [CACACA_site9302] | 9.46 ± 0.45 |
| CACATTATGTATCATACACACAAATAAATATATAAT [CACACA_site4505] | 9.33 ± 0.41 |
| ATATTATTAATATATTGTACTTTTTTTTTTTTATTT [XGTACX_site496] | 8.68 ± 0.51 |
| ATATGTATTTAATTCACACAAAAATATGTTCATGAA [CACACA_site5223] | 8.59 ± 0.38 |
| ATATTTTATTTTCCATGTACACAAAAAAAAAAAAAA [XGTACX_site8327] | 8.26 ± 0.34 |
| TTTTTTTTTTTCTTTGCACACAGATAACTTGAAATT [CACACA_site2184] | 8.96 ± 0.45 |
| AATTTAATTATGGTAACACACAATAAAAAAAAATCT [CACACA_site568] | 8.8 ± 0.38 |
| AGGTTAAAAATAAATACACACATTTTATGGGTGTAT [CACACA_site4702] | 8.85 ± 0.47 |
| AAGAAAATAAAGGATATGAAAAATAAAAAAAAGGAG [TGCATGCA_negctrl_site265] | 8.74 ± 0.48 |
| TGAAAATAATTATAGGTGCATAAACATACGGATCTT | 8.89 ± 0.45 |
| TTTTTTTTGTATTTTTCACACACTCTCTATCTCTCT [CACACA_site8655] | 9.2 ± 0.71 |

| Sequence | gcPBM binding intensity (ln) |
| --- | --- |
| TATAAAAATAATATTACACACATGTAAAATGCCCGT [CACACA_site7522] | 9.16 ± 0.36 |
| ATATATTAATAATAAATTAAAAGGAGTAACATTTTC [CACACA_negctrl_site320] | 8.54 ± 0.46 |
| CGCATACACGGACACACACACACATATATATATATA [CACACA_site4520] | 10.23 ± 0.071 |
| TAAAATAATTCGTAACGTACATATGTAATATAATAT [XGTACX_site6126] | 9.09 ± 0.33 |
| TAATATATAAGAAACAAAAAAAAATAAAAATATATA [TGCATGCA_negctrl_site153] | 8.54 ± 0.54 |
| AAAAAAAAAAAACACACACACACACTAATATATAAA [CACACA_site8302] | 10.3 ± 0.35 |
| GGTATAAAGAAATTTTGTACATATTTCTCCCTTTAA [XGTACX_site1874] | 8.46 ± 0.4 |
| ATTTCTCAATCGTAATGTACAAAAAAAAGGAAAAAA [XGTACX_site1193] | 8.52 ± 0.61 |
| TTATATAGATGGAATAGTACAGTATATATATATATA [XGTACX_site8755] | 9.51 ± 0.48 |
| AGCTCTATATTTTACACATGCGATTTGGATATATAT [TGCATGCA_site105] | 9.04 ± 0.35 |
| TAAATATATATCATCACACACACATACATAAATATA [CACACA_site183] | 9.54 ± 0.23 |
| CCTTTATATTATAAAAGTACATAATATTTTATAAGT [XGTACX_site1629] | 8.29 ± 0.39 |
| ATATTACAACGTAACGAATATTTCATAAATTCTTAA [CACACA_negctrl_site770] | 8.56 ± 0.42 |
| CTTGACCCCCTTTGTTGTACTGACATTTGTGAGCTT [XGTACX_site591] | 9.06 ± 0.32 |
| ATTTTTTCAAAATGGAAAACTTATCAGTGAAAAAAA [CACACA_negctrl_site1087] | 8.44 ± 0.55 |
| TATTTTATATGATAGGTGCATTTTTTTTTTTTTTTT [GTGCAC_site9757] | 8.58 ± 0.52 |
| ATTTTTTTATACAATTTTATATATTAAATATTATAA [GTGCAC_negctrl_site86] | 8.24 ± 0.39 |
| TGTATTTTTAACATATGTACGAATAGCACGTGTTAT [XGTACX_site3640] | 8.85 ± 0.41 |
| TAAAAATGGGAGGGGTGTACTACACAATAAAATTAT [XGTACX_site5641] | 8.94 ± 0.35 |
| TTTGTGTAAAGAATCAGTACATATAATATATATATA [XGTACX_site1972] | 8.74 ± 0.39 |
| TTAATAATGTTTTATTGTACTTTTTTGTGGGTTTAT [XGTACX_site5670] | 8.89 ± 0.48 |
| ATATGTATTGGAGTGTGTACATATATATATATTTAT [XGTACX_site5633] | 9.07 ± 0.35 |

| Sequence | gcPBM binding intensity (ln) |
| --- | --- |
| GTGCTACATCATATGTGTACATATACCAAACTGTAT [XGTACX_site8233] | 9.04 ± 0.33 |
| ATATACATTCAAGGCTGTACACTATATTTTTTTTTT [XGTACX_site6514] | 8.97 ± 0.53 |
| AGTATACACGAACACACACACACATATATAAATATA [CACACA_site6913] | 10.2 ± 0.4 |
| TAAAGTATTACAACCACACACACACCCATATATTAT [CACACA_site4159] | 9.93 ± 0.36 |
| TATAAAATTATTAAACAAGAAAATTTTAGGTAATAC [TGCATGCA_negctrl_site568] | 8.54 ± 0.54 |
| TATAATATATTTTGATGTACAAATATATTATATATA [XGTACX_site8633] | 8.37 ± 0.34 |
| ATAATATATTTTTGAACACACAATATATATATATAT [CACACA_site4124] | 9.06 ± 0.14 |
| ATATAAATATGACACACACACAAAAAAAATAAAGAC [CACACA_site6208] | 9.91 ± 0.26 |
| TTGATAAAACGTTATGCACACGTACGTGGGTATTTA [CACACA_site8445] | 9.04 ± 0.32 |
| TAATTTAAAAATTCCTGTACTCAGTTTTTTCTATTT [XGTACX_site4961] | 8.56 ± 0.67 |
| TAAGTGTATGTATATAAACACACATACATATATATA [CACACA_site8397] | 9.14 ± 0.38 |
| AATCAAAATAATTTAACACACAATTTTAATACTGTT [CACACA_site2375] | 8.8 ± 0.42 |
| AAATTCCATGAAAAAAGTACTAATTAATACAATATA [XGTACX_site2877] | 8.66 ± 0.45 |
| TTTAAGAATTAACGGGGTACAATTCTTAAATATATA [XGTACX_site669] | 8.39 ± 0.26 |
| TAGAAGTACATATATGCATGTTAATTTTAAAGGAGG [TGCATGCA_site538] | 8.85 ± 0.45 |
| ATTAAAAATATTAGTTGTACTTTATATTTTCATATA [XGTACX_site3614] | 8.5 ± 0.41 |
| ATATATATATAGTGTTGTACATTTAAAAATAATATA [XGTACX_site2627] | 8.69 ± 0.4 |
| TGTTTTATTTTTTTTGTGCACATACCTTTAGCATCA [GTGCAC_site9812] | 8.92 ± 0.51 |
| TAATTATAATAAATATTCATATGTTCAAATATATAT [CACACA_negctrl_site151] | 8.41 ± 0.4 |
| ATGTGATAGAAGTACACACACATATGTATTTATAAT [CACACA_site5075] | 9.49 ± 0.33 |
| TATATATAATTCATACATTTTAAATATATTTATTTA [CACACA_negctrl_site840] | 8.47 ± 0.35 |
| TTTTAAAAACGGCATGCATGTAATACATGGAAGGAA [TGCATGCA_site480] | 9.09 ± 0.36 |

| Sequence | gcPBM binding intensity (ln) |
| --- | --- |
| TATAATAATATAATGGTGCATGTATATAACCATATA | 8.71 ± 0.38 |
| TTTGTTGACAGACACACACACATACATATATATATA [CACACA_site2288] | 9.78 ± 0.24 |
| AAATAAATATAAATAAATAAATAAATAAATATATAT [CACACA_negctrl_site827] | 8.69 ± 0.36 |
| TCTTACGGATTCATTGTGCACATATATATATATATA [GTGCAC_site9896] | 9.715 ± 0.0071 |
| GCTCTTTTGTTATGGTGTACCCTCCATGTAACATAA [XGTACX_site91] | 8.84 ± 0.42 |
| TTAATAATTCTTAAAAGTACATAACTTTTTTTTTTT [XGTACX_site751] | 8.3 ± 0.7 |
| TTTTTTATTAAAAGTAGTACACATGAAAAAAAAAAA [XGTACX_site5524] | 8.52 ± 0.48 |
| TTAATATAGATATAACCACACACATACATCTAATTC [CACACA_site8519] | 9.33 ± 0.28 |
| ATTTTTATAGAAATATGTACACAATATGTATATATT [XGTACX_site7993] | 8.74 ± 0.45 |
| TTTAAAAAAATTCATGCACACGAAATAAAAAGCACC [CACACA_site8214] | 9.14 ± 0.33 |
| TCTTTTATGCACATTGAGTAAACAACATATTTTTAA [TGCATGCA_negctrl_site561] | 8.48 ± 0.45 |
| AATAAAAACTACATGTGTACATAATAAATACATATA [XGTACX_site755] | 9.03 ± 0.47 |
| TTTTTTCTTTTCTTTTTATTTTATTTTGTTTTATTT [CACACA_negctrl_site799] | 8.61 ± 0.57 |
| ATAATCCAAAAAAATCAAATAAAATAAAATAAAATA [CACACA_negctrl_site449] | 8.49 ± 0.55 |
| TAAAAATATTTAAACTGTACTATTTTATGTTAAATG [XGTACX_site6620] | 8.43 ± 0.5 |
| TGAACCAGATTTAGAAGTACTAAATATTACATACAT [XGTACX_site2437] | 8.7 ± 0.47 |
| TGTTGCAAAACAAAAAAAAAAAAAAAAAATAATAAT [CACACA_negctrl_site1642] | 8.63 ± 0.57 |
| AGAATATTTATATGATGTACTTATATATATATATAT [XGTACX_site3021] | 9.12 ± 0.12 |
| ATTTTAATGGGACATGCATGGGACAAACTACAAATT [TGCATGCA_site853] | 9.09 ± 0.43 |
| CAGAAATATTAATGCTGTACGGAATACATATATTTT [XGTACX_site539] | 8.69 ± 0.47 |
| TATATATTAAAACACACACACATATATATATATATA [CACACA_site3787] | 9.93 ± 0.18 |
| ATAAACATCGGTAGTACACACATTCATGTACTTGAT [CACACA_site3037] | 9.14 ± 0.36 |
